Data published in patent US20220135678A1, “METHODS AND COMPOSITIONS TO IMPROVE THE SAFETY AND EFFICACY OF CELLULAR THERAPIES” (University of Southern California, priority 2019, published 2022).

Test system: CD33 on hematopoietic stem cells and progenitor cells
Assay: HSPC expressing AMR-dTAG or AMR-ShieldTag targeting CD33, in vitro
Format: cell-based
Conditions: ShieldTag: in the presence of Shield-1

Molecule	Expression of CD33 in the transduced hematopoietic stem cells and progenitor cells
AMR-ShieldTag fusion protein targeting CD33: AMR-ShieldTag fusion protein targeting CD33, lentiviral expression in hematopoietic stem and progenitor cells (protein) MALPVTALLLPLALLLHAARPDEIVLTQSPGSLAVSPGERVTMSCKSSQSVFFSSSQKNYLAWYQQIPGQSPRLLIYWASTRESGVPDRFTGSGSGTDFTLTISSVQPEDLAIYYCHQYLSSRTFGQGTKLEIKRGGGGSGGGGSGGGGSQVQLQQPGAEVVKPGASVKMSCKASGYTFTSYYIHWIKQTPGQGLEWVGVIYPGNDDISYNQKFQGKATLTADKSSTTAYMQLSSLTSEDSAVYYCAREVRLRYFDVWGQGTTVTVSSTRIEVMYPPPYLDNEKSNGTIIHVKGKHLCPSPLFPGPSKPFWVLVVVGGVLACYSLLVTVAFIIFWVRSKRSGG[about 100 residues cut from this listing]	masked
AMR-dTAG fusion protein targeting CD33: AMR-dTAG fusion protein targeting CD33, lentiviral expression in hematopoietic stem and progenitor cells (protein) MALPVTALLLPLALLLHAARPDEIVLTQSPGSLAVSPGERVTMSCKSSQSVFFSSSQKNYLAWYQQIPGQSPRLLIYWASTRESGVPDRFTGSGSGTDFTLTISSVQPEDLAIYYCHQYLSSRTFGQGTKLEIKRGGGGSGGGGSGGGGSQVQLQQPGAEVVKPGASVKMSCKASGYTFTSYYIHWIKQTPGQGLEWVGVIYPGNDDISYNQKFQGKATLTADKSSTTAYMQLSSLTSEDSAVYYCAREVRLRYFDVWGQGTTVTVSSTRIEVMYPPPYLDNEKSNGTIIHVKGKHLCPSPLFPGPSKPFWVLVVVGGVLACYSLLVTVAFIIFWVRSKRSG[about 100 residues cut from this listing]	masked
